# Measured values reported in PubChem BioAssay AID686979 (National Center for Advancing Translational Sciences (NCATS), 2013).
# Several values for one entry are separate records, joined by “and”; a condition that tells them apart may be missing. Equal entries are not always repeated. Out of some 420,000 compounds screened, about 50,000 (12%) were called active. Inconclusive results, whose numbers are uncertain, are shown with a selection of clear calls. The call rests on the fitted dose curve; in most records, active means well fitted inhibition curve with a large enough effect; inconclusive means small, poorly fitted or top-dose-only effect; inactive means flat fitted curve, though single readings scatter. No potency is given beside an inconclusive call; the fits are too rough. Where a SMILES comes first, the peptide text is derived from it. [ ]: non-standard residue; d: D form.
# Experiment: qHTS for Inhibitors of human tyrosyl-DNA phosphodiesterase 1 (TDP1): qHTS in cells in presence of CPT; further: nearly all actives have a fitted effect of over 55% in size
# Conditions: chicken DT40 Tdp1-/-;hTDP1 cells + 20 nM CPT, ATP luminescence, 48 h; activity change, negative = growth inhibition: at 46.2 µM (top of the series)
# In short: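 Chicken DT40 Tdp1-/- cells complemented with human TDP1, 400 cells/well, exposed to compounds plus 20 nM camptothecin for at least 48 h at 37 C; viability read as ATP content by CellTiter-Glo luminescence.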
# On the % scale 0 is the no-effect control and ±100 the full control effect; potency means the concentration at half of the fitted maximal effect; tags describe the fitted curve by direction and shape.
Structure (SMILES),Potency,"activity change, negative = growth inhibition"
C/C(=N\Nc1cc(Cl)nc(C)n1)c1ccc(Cl)c(Cl)c1,inactive,–
CCOc1ccc(C(C)(C)C)cc1S(=O)(=O)Nc1ccncc1,inactive,–
Cc1ccc(C)c(N2CCN(c3nc4ccccc4c(=O)n3Cc3ccccc3)CC2)c1,inactive,–
C[C@H]1CN([C@@H](C)CO)S(=O)(=O)c2ccc(Br)cc2O[C@H]1CN(C)C(=O)Cc1ccccn1,inactive,–
COc1ccc(/C=N/Nc2ncnc3c2[nH]c2ccccc23)c(OC)c1OC,inactive,–
COc1ccc(CCCC(=O)N/N=C/c2cccc(OC)c2O)cc1C,active: 1.84 µM,–
NC1=NC[C@H](Cc2ccc(O)cc2)N1CCc1cc(C(F)(F)F)cc(C(F)(F)F)c1,"inconclusive [inhibitor, single point]",–
COc1ccc(C(=O)N2CCC3(CC2)CCN(c2ccncc2)CC3)cc1,"inconclusive [inhibitor, single point]",–
NS(=O)(=O)c1ccc(CNC(=O)c2cnccn2)cc1,"inconclusive [inhibitor, single point]",–
Cc1[nH][nH]c(=O)c1C(c1ccccc1[N+](=O)[O-])C(C#N)C#N (centres undefined),"inconclusive [inhibitor, single point]",–
COc1ccc(OC)c(S(=O)(=O)Nc2cc3c4c(c2)CCC(=O)N4CCC3)c1,–,inconclusive: -31.6% [inhibitor]
Cc1cc(C)c2[nH]c(C(=O)N3CCC(n4nccc4NC(=O)C4CC4)CC3)c(C)c2c1,inactive,–
CCOC(=O)C1CCCN(c2ncnc3c2oc2ccccc23)C1 (centres undefined),"inconclusive [inhibitor, single point]",–
O=C(Nc1ccccc1C(=O)N1CCCC1)c1cccc(S(=O)(=O)N2CCCCCC2)c1,"inconclusive [inhibitor, single point]",–
CC(C)c1ccc(CN(C(=O)/C=C/c2ccco2)C2CCS(=O)(=O)C2)cc1 (centres undefined),–,inconclusive: -33.5% [inhibitor]
CC(=O)N1CCSc2ccc(S(=O)(=O)NCCc3cccc(C)c3)cc21,active: 20.6 µM,–
CC1CCN(Cc2nnnn2-c2cccc([N+](=O)[O-])c2)CC1,"inconclusive [inhibitor, single point]",–
CCCCCCCC[N+](C)(C)CCCCCCCC,active: 841 nM and active: 1.68 µM,–
COc1cc2nc(N3CCN(c4cc(C)ccc4C)CC3)nc(N)c2cc1OC,active: 8.2 µM,–
COc1cc(C2c3[nH]c4ccccc4c3C[C@@H]3C(=O)N(Cc4ccco4)CC(=O)N23)cc(OC)c1OC (some centres undefined),"inconclusive [inhibitor, single point]",–
c1ccc(CN(Cc2cccs2)C(c2cccs2)c2nnnn2C2CCCC2)cc1 (centres undefined),"inconclusive [inhibitor, single point]",–
CC(=O)c1ccc(OCc2cc(C(=O)N(C)C(C)c3ccon3)no2)cc1 (centres undefined),"inconclusive [inhibitor, partial curve]",–
O=C(CCN1C(=O)c2cccc3cccc(c23)C1=O)NCC1CCCO1 (centres undefined),inactive,–

Structure (SMILES),Potency,"activity change, negative = growth inhibition"
CCn1cc(C(=O)NCCCN2CC(C)CC(C)C2)c(=O)c2cc(S(=O)(=O)N(C)C3CCCCC3)ccc21 (centres undefined),"inconclusive [inhibitor, single point]",–
CCc1nc2c(OCc3ccc(C(F)(F)F)cc3)cccn2c1N(C)C(C)=O,"inconclusive [inhibitor, single point]",–
COC(=O)c1c(-c2cccc3ccccc23)csc1NC(=O)Cc1ccc(OC)c(OC)c1,active: 25.9 µM,–
COCCN1C[C@@H](CO)O[C@@H](n2cnc3c(NC4CC4)ncnc32)C1,inactive,–
CS(=O)(=O)N(CC(=O)NCCSCc1ccccc1)c1ccccc1Cl,"inconclusive [inhibitor, single point]",–
CCC(=O)N1c2ccccc2NC2=C(C(=O)CC(C)(C)C2)C1c1ccc(O)c(OC)c1 (centres undefined),inactive,–
CC(C)n1c(CN2CCN(Cc3ccccc3)CC2)nc2ccccc21,"inconclusive [inhibitor, single point]",–
O=C(CSc1nnc(-c2ccco2)n1Cc1ccccc1)c1ccccc1,"inconclusive [inhibitor, single point]",–
N#CC1=C(N)S[C@@H](C(=O)c2ccc(F)cc2)[C@@H]1c1cccs1,–,inconclusive: -34.3% [inhibitor]
Cc1c(Cl)cccc1NC(=O)CSc1nc(=O)[nH]c2c1CCCC2,active: 20.6 µM,–
COc1cc(SC)ccc1C(=O)N1CCN(c2ccc(O)cc2)CC1,"inconclusive [inhibitor, single point]",–
CCCCNC(=S)Nc1ccc(Cl)cc1,"inconclusive [inhibitor, single point]",–
Cc1ccc(-n2c(=O)c3cccnc3n2CC(=O)Nc2ccc(C)cc2Cl)cc1,"inconclusive [inhibitor, single point]",–
Cc1cccc(C)c1NC(=O)CCCSc1nnc(-c2ccc(F)cc2)n1-c1ccccc1,"inconclusive [inhibitor, single point]",–
Cc1cccc2c(C(=O)N3CCN(c4ccccn4)CC3)cc(-c3cccc(Br)c3)nc12,"inconclusive [inhibitor, single point]",–
O=S1(=O)C=C(SCCN2CCCC2)c2ccccc21,inactive,–
COc1ccc(Nc2nnc(Cc3ccncc3)c3ccccc23)c(OC)c1,inactive,–
COc1ccc(-c2c[n+]3c4n2CCCCC4=C(c2ccc(Br)cc2)C3)cc1,active: 6.51 µM,–
COc1ccc(OC)c(NC(=O)Cn2ncc3c2-c2ccccc2OC3)c1,"inconclusive [inhibitor, single point]",–
O=C(NCCC1=CCCCC1)C1CCN(C(=O)N2CCOc3ccccc32)CC1,"inconclusive [inhibitor, single point]",–
COC(=O)c1ccc(NC(=S)NCCc2cccc(C)c2)cc1,"inconclusive [inhibitor, single point]",–
O=P(COCCOCCOCCOCP(=O)(c1ccccc1)c1ccccc1)(c1ccccc1)c1ccccc1,inactive,–
O=C(CCC1CCCCC1)NNC(=O)NC12CC3CC(CC(C3)C1)C2,"inconclusive [inhibitor, partial curve]",–

Structure (SMILES),Potency,"activity change, negative = growth inhibition"
O=C(Oc1ccccc1Cl)c1ccc2c(=O)n3c(nc2c1)CCC3,inactive,–
Cc1ccc(S(=O)(=O)N2CCN(C(=O)CN3CCCSc4ccccc43)CC2)cc1,"inconclusive [inhibitor, single point]",–
COc1cccc(CN(C)C(=O)c2cc(S(=O)(=O)NC3CCCCC3)ccc2C)c1,"inconclusive [inhibitor, single point]",–
CSCC[C@H](C=O)NC(=O)[C@H](CC(C)C)NC(=O)[C@H](CC(C)C)NC(C)=O (Ac-Leu-Leu-[dM]-aldehyde),active: 18.8 µM,–
CC(C)(C)CNC(=O)c1cccc2c1C(=O)c1ccc(-c3cc4ccccc4o3)cc1S2(=O)=O,active: 16.4 µM,–
O=C1CN(C(=O)c2ccc(S(=O)(=O)N3CCCCC3)cc2)C(c2ccc(F)cc2)c2cc(Cl)ccc2N1 (centres undefined),"inconclusive [inhibitor, single point]",–
COc1cccc(-n2ccnc2SCC(=O)Nc2cc(C)on2)c1,inactive,–
NC(=O)c1cc(S(=O)(=O)N2CCN(c3ccc([N+](=O)[O-])cc3)CC2)cs1,"inconclusive [inhibitor, single point]",–
CCOC(=O)C1(Cc2ccccc2C(F)(F)F)CCN(C(=O)c2cc(C(C)=O)n[nH]2)CC1,"inconclusive [inhibitor, single point]",–
O=C1CC2(CCN(C(=O)c3ccc(Br)cc3)CC2)Oc2ccccc21,"inconclusive [inhibitor, single point]",–
CCCn1c(SC(C)C(=O)NC2CCCC2)n[nH]c1=O (centres undefined),inactive,–
CC(C)C[C@@H]1CN=C(N)N1C[C@@H]1CCCN1C[C@@H](C(C)C)N1C[C@@H](Cc2ccccc2)N(CCCC2CCCC2)C1=N,"inconclusive [inhibitor, single point]",–
COc1ccc(C2=C(C)C(=O)N(Cc3ccc(C(=O)Nc4ccc(F)cc4C)cc3)S2(=O)=O)cc1,active: 3.26 µM,–
CCOC(=O)c1cn(CC)c2cc(N3CCN(C)CC3)c(F)cc2c1=O,inactive,–
O=C(NCCc1ccccc1)c1ccc(CSc2nc3cccnc3n2Cc2ccccc2F)cc1,"inconclusive [inhibitor, single point]",–
COCCNc1nc(-c2cc(-c3ccccc3)on2)cc(C(C)C)n1,"inconclusive [inhibitor, single point]",–
CC(NC(=O)C1CCCN1S(=O)(=O)c1ccccc1)c1ccccc1 (centres undefined),"inconclusive [inhibitor, partial curve]",–
CCCC(=O)Nc1ccc(C(=O)COC(=O)C2CC2)cc1,inactive,–
CCCSc1nc(-n2ncc(C#N)c2N)c2c3c(sc2n1)CCC(C)C3 (centres undefined),"inconclusive [inhibitor, partial curve]",–
O=C(Cc1ccccc1)NCCSCc1ccc(Cl)cc1,inactive,–
CCn1cc(C(=O)NCc2ccco2)c(=O)c2cc(S(=O)(=O)N3CCCCCC3)ccc21,active: 20.6 µM,–
CCOC(=O)c1cc(-c2ccccc2)n(CC(=O)NCc2ccc(C)cc2)c1C,"inconclusive [inhibitor, partial curve]",–
Cc1nn(Cc2ccc(Cl)cc2)c(C)c1NC(=O)CCCn1nc([N+](=O)[O-])c(Cl)c1C,active: 14.6 µM,–
